Laboratory results published in patent US10501518B2 (priority 2013, dated 2019).
Not every detail of the peptide structures is certain; ends, links or a residue may be inferred. Starred links: 1 amine or outer side, 2 acyl side, 3 side chain; linkers in the order of their positions; H or OH if unused. Non-standard residues stand in square brackets, D forms with d. Residues, ends and D or L forms follow the SMILES beside them. *: point of attachment. X12 = O=C([C@H]1CCC[C@@H]1N[*:1])[*:2]; ACPC(1S,2S) = N[C@H]1CCC[C@@H]1C(=O)*; hArg = N=C(N)NCCCC[C@H](N)C(=O)O

How the values were obtained:
[1] = tested on: PTH2R/PTH1R; assay: cAMP response selectivity between PTH2R and PTH1R; format: cell-based; details: most selective
Text: Selected analogs containing beta-amino acid substitutions selectively signal through one or the other of the two receptors. Without being bound to any underling biological phenomenon or mechanism, PTHR-2 likely serves an alternative function to PTHR-1 as it is highly expressed in the central nervous system. In contrast, PTHR-1 is highly expressed in bone and kidney, but not in the CNS. The analogs disclosed herein are thus useful as therapeutic compounds that a specific agonists or antagonists of PTHR-1 and PTHR-2.

[2] = molecular target: T1, PTHR (Homo sapiens, UniProt Q03431); assay: cAMP induction potency, N-terminal modifications and cyclic constraints (Tables 9, 10, 13); format: cell-based
T1 construct: expressed in transfected cells
T1 sequence (Q03431 27-593): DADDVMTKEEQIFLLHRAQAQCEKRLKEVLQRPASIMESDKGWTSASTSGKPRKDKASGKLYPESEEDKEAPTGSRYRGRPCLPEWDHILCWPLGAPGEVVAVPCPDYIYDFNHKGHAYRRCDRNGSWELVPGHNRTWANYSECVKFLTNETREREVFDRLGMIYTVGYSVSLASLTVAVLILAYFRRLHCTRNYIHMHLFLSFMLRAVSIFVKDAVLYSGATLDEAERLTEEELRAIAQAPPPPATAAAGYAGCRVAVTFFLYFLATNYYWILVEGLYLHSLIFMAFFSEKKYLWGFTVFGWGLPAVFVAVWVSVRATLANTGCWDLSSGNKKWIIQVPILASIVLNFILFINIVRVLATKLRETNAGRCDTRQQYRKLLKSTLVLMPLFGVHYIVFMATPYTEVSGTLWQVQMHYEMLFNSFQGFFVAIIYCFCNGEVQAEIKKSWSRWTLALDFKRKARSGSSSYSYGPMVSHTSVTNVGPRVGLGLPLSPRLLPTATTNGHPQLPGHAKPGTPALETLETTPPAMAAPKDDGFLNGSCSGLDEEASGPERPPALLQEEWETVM

[3] = molecular target: T2, delNT PTHR1 (Homo sapiens, UniProt Q03431, DEL24-181); assay: cAMP-inducing potency at truncated receptor delNT PTHR1; format: cell-based; details: Table 8; EC50 relative to PTH(1-34)
T2 construct: expressed in transfected cells
T2 sequence (Q03431 with tags, fused parts or gaps DEL24-181): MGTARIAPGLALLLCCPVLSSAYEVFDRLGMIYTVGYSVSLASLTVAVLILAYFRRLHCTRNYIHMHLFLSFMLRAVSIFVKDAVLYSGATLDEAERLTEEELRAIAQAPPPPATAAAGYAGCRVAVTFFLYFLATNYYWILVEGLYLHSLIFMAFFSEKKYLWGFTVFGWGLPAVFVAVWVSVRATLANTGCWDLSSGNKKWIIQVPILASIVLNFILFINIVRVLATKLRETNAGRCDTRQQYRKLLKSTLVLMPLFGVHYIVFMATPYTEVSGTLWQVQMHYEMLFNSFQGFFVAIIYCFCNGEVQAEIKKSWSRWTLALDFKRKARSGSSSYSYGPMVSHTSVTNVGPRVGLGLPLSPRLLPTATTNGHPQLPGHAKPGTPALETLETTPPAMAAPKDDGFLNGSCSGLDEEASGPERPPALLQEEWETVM

[4] = molecular target: T3, WT human PTHR-1 (Homo sapiens, UniProt Q03431); assay: cAMP GloSensor dose-response in GP-2.3 cells expressing human PTHR-1; format: cell-based; details: Table 8; EC50 relative to PTH(1-34)
T3 construct: bioactivity of the resulting compound in full-length hPTHR-1 and a truncated version; expressed in transfected cells
T3 sequence (Q03431 27-593): T1 sequence (Q03431 27-593)
Procedure: FIGS. 8A, 8B, and 8C constitute a series of graphs depicting cAMP responses in GP-2.3 cells expressing wild-type human parathyroid hormone receptor 1 (PTHR-1-WT). […] Data are means (±SEM) of n>4 experiments, each performed in duplicate.
For cAMP dose-response assays, monolayers of confluent HEK 293 cells were pre-incubated with buffer containing d-luciferin (0.5 mM) in 96 well plates at room temperature until a stable baseline level of luminescence was established (30 min). Varying concentrations of agonist were then added, and the time course of luminescence response was recorded using a Perkin Elmer plate reader following α/β-peptide addition.

[5] = mouse; cited from earlier work
[6] = molecular target: T4, rPTHR-1 (Rattus norvegicus, UniProt P25961); assay: Washout assay of cAMP response in GR-35 cells; format: cell-based; details: Table 11
T4 construct: expressed in transfected cells
T4 sequence (P25961 27-591): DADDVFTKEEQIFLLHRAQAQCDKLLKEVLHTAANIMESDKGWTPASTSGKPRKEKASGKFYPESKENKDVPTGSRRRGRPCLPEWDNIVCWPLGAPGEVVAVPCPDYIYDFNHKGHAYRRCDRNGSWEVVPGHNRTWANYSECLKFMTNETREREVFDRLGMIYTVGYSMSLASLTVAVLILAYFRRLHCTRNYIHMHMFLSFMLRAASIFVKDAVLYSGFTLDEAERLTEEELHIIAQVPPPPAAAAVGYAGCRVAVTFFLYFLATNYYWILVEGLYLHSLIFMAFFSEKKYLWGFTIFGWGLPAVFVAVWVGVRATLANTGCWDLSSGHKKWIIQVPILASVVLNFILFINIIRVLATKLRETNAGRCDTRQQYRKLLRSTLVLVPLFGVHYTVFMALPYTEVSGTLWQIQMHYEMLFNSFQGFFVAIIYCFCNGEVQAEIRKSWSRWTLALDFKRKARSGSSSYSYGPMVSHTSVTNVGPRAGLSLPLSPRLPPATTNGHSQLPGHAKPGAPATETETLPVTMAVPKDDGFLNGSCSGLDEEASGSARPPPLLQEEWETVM
Procedure: FIGS. 11A and 11B present the results of rPTHR-1 washout experiments. Assays of cAMP accumulation were performed using HEK-293-derived cell lines stably transfected to express the luciferase-based cAMP GloSensor™-brand protein along with WT-rPTHR-1 (GR-35 cells). Data are means (±SEM) of n=3 (M-PTH) or n=5 experiments, each performed in quadruplicate. […] Ligand was applied and luminescence was recorded for 14 minutes thereafter. FIG. 11B depicts data for the accumulation of cAMP following ligand wash-out in cells expressing the rPTHR-1. The cells from FIG. 11A were removed from the plate reader at the end of the 14-min “ligand-on” phase, rinsed twice to remove unbound ligand, treated with fresh medium containing luciferin, and luminescence was again recorded for an additional 120 min of “wash-out.” Luminescence was recorded using a PerkinElmer Envision plate reader; cells were preloaded with luciferin for 30 min before ligand addition.
HEK293 cell monolayers expressing rat PTHR-1 (GR35 cells) were treated with ligand in for 14 minutes. This buffer was then discarded, and the cell monolayer was rinsed (2×). Buffer containing luciferin was introduced for 120 minutes. Luminescence response was recorded before and after washout, with luminescence readings recorded every 2 minutes. The area under the curve (AUC) for luminescence response curve was determined using GraphPad Prism. See […] for a graphs depicting the average of n=3 (M-PTH) or n=5 washout experiments. See Table 11 for a description of composite data from n=3 or 5 washout experiments.
Data were processed by using the Microsoft Excel and GraphPad Prism 4.0 software packages. Data from binding and cAMP dose-response assays were analyzed using a sigmoidal dose-response model with variable slope. Washout responses were assessed by quantifying the area under the luminescence response curve (AUC) following washout. Post-washout AUC was normalized by dividing the post-washout AUC by the pre-washout AUC. […]

[7] = molecular target: T4, rPTHR-1; details: cited from earlier work

## CSCC[C@H](NC(=O)[C@H](CO)NC(=O)[C@H](CC(N)=O)NC(=O)[C@H](CC(C)C)NC(=O)[C@H](Cc1c[nH]cn1)NC(=O)[C@H](CCCCN)NC(=O)CNC(=O)[C@H](CC(C)C)NC(=O)[C@H](CC(N)=O)NC(=O)[C@H](Cc1c[nH]cn1)NC(=O)[C@H](CCSC)NC(=O)[C@H]1CCC[C@@H]1NC(=O)[C@H](CCC(N)=O)NC(=O)[C@H]1CCC[C@@H]1NC(=O)[C@H](CCC(=O)O)NC(=O)[C@H](CO)NC(=O)[C@@H](NC(=O)[C@H]1CCC[C@@H]1N)C(C)C)C(=O)N[C@@H](CCC(=O)O)C(=O)N[C@@H](CCCNC(=N)N)C(=O)N[C@H](C(=O)N[C@@H](CCC(=O)O)C(=O)N[C@@H](Cc1c[nH]c2ccccc12)C(=O)N[C@@H](CC(C)C)C(=O)N[C@@H](CCCNC(=N)N)C(=O)N[C@@H](CCCCN)C(=O)N[C@@H](CCCCN)C(=O)N[C@@H](CC(C)C)C(=O)N[C@@H](CCC(N)=O)C(=O)N[C@@H](CC(=O)O)C(=O)N[C@H](C(=O)N[C@@H](Cc1c[nH]cn1)C(=O)N[C@@H](CC(N)=O)C(=O)N[C@@H](Cc1ccccc1)C(N)=O)C(C)C)C(C)C [ACPC(1,5,7), XVSEXQXMHNLGKHLNSMERVEWLRKKLQDVHNF-NH2] ({ACPC(1S,2S)}-VSE[X12]Q[X12]MHNLGKHLNSMERVEWLRKKLQDVHNF-NH2; N-terminus assumed)
[1]; Table 16
  cAMP response PTH2R/PTH1R: 11
[2]; Table 9
  Fold PTH: 36.7

## CC[C@H](C)[C@H](NC(=O)[C@H](CCC(=O)O)NC(=O)[C@H](CO)NC(=O)[C@@H](NC(=O)[C@@H](N)CO)C(C)C)C(=O)N[C@@H](CCC(N)=O)C(=O)N[C@H]1CCC[C@@H]1C(=O)N[C@@H](CCSC)C(=O)N[C@@H](Cc1c[nH]cn1)C(=O)N[C@@H](CC(N)=O)C(=O)N[C@@H](CC(C)C)C(=O)NCC(=O)N[C@@H](CCCCN)C(=O)N[C@@H](Cc1c[nH]cn1)C(=O)N[C@@H](CC(C)C)C(=O)N[C@@H](CC(N)=O)C(=O)N[C@@H](CO)C(=O)N[C@@H](CCSC)C(=O)N[C@@H](CCC(=O)O)C(=O)N[C@@H](CCCNC(=N)N)C(=O)N[C@H](C(=O)N[C@@H](CCC(=O)O)C(=O)N[C@@H](Cc1c[nH]c2ccccc12)C(=O)N[C@@H](CC(C)C)C(=O)N[C@@H](CCCNC(=N)N)C(=O)N[C@@H](CCCCN)C(=O)N[C@@H](CCCCN)C(=O)N[C@@H](CC(C)C)C(=O)N[C@@H](CCC(N)=O)C(=O)N[C@@H](CC(=O)O)C(=O)N[C@H](C(=O)N[C@@H](Cc1c[nH]cn1)C(=O)N[C@@H](CC(N)=O)C(=O)N[C@@H](Cc1ccccc1)C(N)=O)C(C)C)C(C)C [ACPC(7)] (H-SVSEIQ[X12]MHNLGKHLNSMERVEWLRKKLQDVHNF-NH2; N-terminus assumed)
[3]
  Fold PTH, nM (deINT PTHR1): 74
[1]; Table 17
  cAMP response PTH1R/PTH2R: 44
[4]
  Fold PTH, nM (hPTHR1): 1.3

## CC[C@H](C)[C@H](NC(=O)[C@H](CCC(=O)O)NC(=O)[C@H](C)NC(=O)[C@@H](NC(=O)[C@H](C)N)C(C)C)C(=O)N[C@@H](CCC(N)=O)C(=O)N[C@@H](CC(C)C)C(=O)N[C@@H](CCSC)C(=O)N[C@@H](Cc1c[nH]cn1)C(=O)N[C@@H](CCC(N)=O)C(=O)N[C@@H](CCCCNC(=N)N)C(=O)N[C@@H](C)C(=O)N[C@@H](CCCCN)C(=O)N[C@@H](Cc1c[nH]c2ccccc12)C(=O)N[C@@H](CC(C)C)C(=O)N[C@@H](CC(N)=O)C(=O)N[C@@H](CO)C(=O)N[C@@H](CCSC)C(=O)N[C@@H](CCCNC(=N)N)C(=O)N[C@@H](CCCNC(=N)N)C(=O)N[C@H](C(=O)N[C@@H](CCC(=O)O)C(=O)N[C@@H](Cc1c[nH]c2ccccc12)C(=O)N[C@@H](CC(C)C)C(=O)N[C@@H](CCCNC(=N)N)C(=O)N[C@@H](CCCCN)C(=O)N[C@@H](CCCCN)C(=O)N[C@@H](CC(C)C)C(=O)N[C@@H](CCC(N)=O)C(=O)N[C@@H](CC(=O)O)C(=O)N[C@H](C(=O)N[C@@H](Cc1c[nH]cn1)C(=O)N[C@@H](CC(N)=O)C(=O)N[C@@H](Cc1ccccc1)C(N)=O)C(C)C)C(C)C [M-PTH(1-34), reference compound] (H-AVAEIQLMHQ[hArg]AKWLNSMRRVEWLRKKLQDVHNF-NH2; N-terminus assumed)
[5]
  calcemic response in vivo (previously shown): prolonged calcemic response in vivo
[6]; luminescence AUC in the 14 minutes before washout, PTH(1-34), D6, M-PTH(1-34) 0.3 nM, B5 3 nM
  AUC-on: 43,000 ± 5,400
[6]; luminescence AUC in the 120 minutes following washout
  AUC-washout: 640,000 ± 65,000
[6]; ratio of AUC-washout to AUC-on
  AUC Ratio: 14.8 ± 0.49
[7]
  cAMP response following washout (previously shown): prolonged responses following washout
[2]; Table 10
  Fold PTH: 4.2
